Some of the results follow.
What follows are sequences tested on PfAP2-HC AP2 domain (GST-tagged) (assay: gcPBM binding intensity (ln(normalized median fluorescence intensity)); higher = stronger DNA binding).
Summary of the method: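 GST-tagged P. falciparum DNA-binding domains, expressed in E. coli (about 25 μg on average), were applied for 1 h to an Agilent 4 × 180k array of primer-extended double-stranded 36-bp intergenic genomic probes plus negative controls. The binding buffer was 1× PBS with 1% milk, 0.2 mg/ml BSA, 0.5% salmon testes DNA and 0.03% Triton X-100. Bound protein was detected with Alexa488 anti-GST antibody and scanned at 488 nm. Binding intensity is the highest Masliner-normalised natural-log median intensity across replicate spots of either probe orientation.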

Sequence	gcPBM binding intensity (ln)
CACAGTGATATAAAAACACACATGAATTAAAATTTC [CACACA_site4999]	9.73
CATACATACAGACACACACACATATTTATATTTATA [CACACA_site6172]	11.3
GTTAATTATTAAATTTGTACTCATATATATTATATA [XGTACX_site6862]	9.72
TCCCTTAATTTTGTGTGTACATATAATATATTTTTA [XGTACX_site2789]	10
AAGAACTCATTAATAATGTAATATTTTATAATTTAG [CACACA_negctrl_site321]	9.42
ATAATAAAACTCAAAGTGCATTAGAATAATTGTAAA	9.69
ATTCATAAATATATTTGTACATATTATATATAAATA [XGTACX_site1907]	9.5
TATACATATTTCTATTGTACATAAACTAAATCTTCA [XGTACX_site28]	9.4
ACAATAAATATGTGGTTGCACTTATAATATATTTAT	9.62
TAATATATAACGTGCACACACACATTTACGTATGAA [CACACA_site1832]	10
AGCACCCACCAACACACACACACACCCACCCACCCA [CACACA_site8011]	11.2
GATATTATTGCATATTTACACACGTACTAATTTAAA [CACACA_site8231]	9.93
TACAATTGTAAAGGCGCACACATATATATATATATA [CACACA_site1392]	10.2
TTTTTATAATAAAAAAATATAACTATATTAAGCCAC [CACACA_negctrl_site555]	9.47
AATATATAGGAAAAAGTGCAATAAATGAACAAAATA	9.88
TTTAATAAAATTCTAGTGCAAAAAGGAAAAAACAAA [GTGCAC_site9642]	9.63
AATTTTGATATATATTGTACGCATTTTTAAATGCCA [XGTACX_site7694]	9.61
AAAAGAAATGACAAATTGGATAGATAATAGGGGGTA [GTGCAC_negctrl_site262]	9.77
GAAGTTTTTTAAAGATGTACTTTTTAAAAATAATGT [XGTACX_site1975]	9.17

Sequence	gcPBM binding intensity (ln)
TTCTTAATTTAAAATTGTACTTAAGTAATACTTATG [XGTACX_site3928]	9.46
TTATTTACTTATTGCACACATATAAAATATATTTAT [CACACA_site3101]	9.8
AAAAAAAAAAAAAATACACACATATATAAATAAATA [CACACA_site6459]	9.8
GGAATAGTGATATATACACACAAATACATATTTATA [CACACA_site6183]	9.9
AATTAATAAGAAAGGTGTACAGAAAAAAAAAAATAT [XGTACX_site2106]	9.78
TTTTTCTAATTATGCACACATATCAAAATATTCAAT [CACACA_site2749]	9.7
GCTCAATTTTTGGGTACACACAAATGTATAAGAATA [CACACA_site7178]	9.58
ATATATATAGAAATATGTACGAAAAAAATATCACAT [XGTACX_site746]	9.85
TATTTATTTTATATATGTACATAATATATTCTTATA [XGTACX_site1619]	9.75
TATATATATATATATGTGCACTGAAAGAATTATACA [GTGCAC_site9586]	9.76
AATAAGCTCACGTGTCGTACATTTTTTAAAACAACC [XGTACX_site4707]	9.78
TCAAAAAAAAAAAAAAAAAAAAAAAAAAAAAAAAAA [CACACA_negctrl_site1753]	8.78
AAAATCAAAAAAACAAGTACAAATGTGGACTTTTTT [XGTACX_site5363]	9.64
TGTTCTATGGTTTGTAGTACTTTAATAAATATAAAT [XGTACX_site7823]	9.65
TGACCTGTTCAGGTAACACACATATAAACCCATACA [CACACA_site31]	9.98
ATGCTATAGGATCTTACACACATTTTTGTAAAAAAA [CACACA_site1868]	9.68
TTTTTTTTTTTTTGGTGTACCATAGGTAAAATGATT [XGTACX_site8020]	9.34
ATTTATGGAAAAAGAACACACAATCAAACAAAAATA [CACACA_site3707]	10
ATATAAATGAATATATGTACATATATATATATATAT [XGTACX_site6361]	9.82

Sequence	gcPBM binding intensity (ln)
CAAAATATAGATGACACACACAAAAAAAGTATATTA [CACACA_site6848]	10.6
AGATAAAAAAAGTACACACACACATATATATATATA [CACACA_site3072]	10.4
AAGCTTCCTTAATATACACACATATCTGAGTATATT [CACACA_site5939]	9.89
CATTTACCCTTATTAACACACAAAATATAATACGCT [CACACA_site2565]	9.83
AAAATTATAATATATACACACATATATATATTAAAT [CACACA_site473]	9.78
ATAGAAAGTGACAATTGTACATACATATTATATATA [XGTACX_site4390]	10
TTCTTGGAATACAAGTGTACTTTATTATTATTATTA [XGTACX_site5997]	9.68
AAAAAAAAAAAAAAAAAAAAATTTCAATTATATTGA [GTGCAC_negctrl_site642]	9.27
TTTTTTTTTGCCTACTGTACTATTTTTGAGCTCACC [XGTACX_site7967]	9.63
ACGTAAAATTATTATTGTACATGTAAATAATTTGGA [XGTACX_site8154]	9.85
TATATTAAACATATATGTACATATTTTTTCTGAACA [XGTACX_site5390]	9.6
TATTGTTTTTTTGATTTTTTTTTTTTTTTTAATGAA [CACACA_negctrl_site824]	9.33
ACCAAATCATATATAGCACACAAATTCTTTATTATT [CACACA_site8911]	9.81
AATATTTTCTGTAATACTTCTTTTCAATTTATTTCG [CACACA_negctrl_site1390]	9.6
AATATCAATGATGTTACATGCAAGAGAATCCACAAA [TGCATGCA_site678]	9.7
TAACTCCACAAATAATGTACATATATCACTATATTT [XGTACX_site4911]	9.84
AATGTATAATTATAATGTACAAATAATATATAATAT [XGTACX_site5407]	9.78
TATATAATATATATTTTATATTTGTAATAATTTTTT [GTGCAC_negctrl_site497]	9.51
TACATATGAAAATACACACATACATACATATATATA [CACACA_site1673]	9.92

From the supplement of paper PMC11417369
